Values joined by “and” are separate entries in the source; they are usually repeats but may differ in a detail not shown here. Identical values can stand only once. The whole screen tested about 280,000 compounds, of which about 1,100 (0.39%) were called active. The shares of active, inactive and inconclusive entries below differ from those in the screen. Calls follow the shape of the dose curve; as a rule, active = well fitted inhibition curve with a large enough effect; inconclusive = small, poorly fitted or top-dose-only effect, or effect the other way; inactive = flat fitted curve, though single readings scatter. Potencies beside an inconclusive call are fits to weak or partial responses and may not hold up.
What follows are molecules tested against Microtubule-associated protein tau (Homo sapiens) (UniProt P10636) (assay: qHTS for Inhibitors of Tau Fibril Formation, Fluorescence Polarization). Details: K18 P301L tau heparin fibrillization, Alexa594 FP, 6 h; series mostly up to 57.7 µM; activity, negative = inhibition: at the top concentration.
Sequence of UniProt P10636 (P10636 whole entry, looked up): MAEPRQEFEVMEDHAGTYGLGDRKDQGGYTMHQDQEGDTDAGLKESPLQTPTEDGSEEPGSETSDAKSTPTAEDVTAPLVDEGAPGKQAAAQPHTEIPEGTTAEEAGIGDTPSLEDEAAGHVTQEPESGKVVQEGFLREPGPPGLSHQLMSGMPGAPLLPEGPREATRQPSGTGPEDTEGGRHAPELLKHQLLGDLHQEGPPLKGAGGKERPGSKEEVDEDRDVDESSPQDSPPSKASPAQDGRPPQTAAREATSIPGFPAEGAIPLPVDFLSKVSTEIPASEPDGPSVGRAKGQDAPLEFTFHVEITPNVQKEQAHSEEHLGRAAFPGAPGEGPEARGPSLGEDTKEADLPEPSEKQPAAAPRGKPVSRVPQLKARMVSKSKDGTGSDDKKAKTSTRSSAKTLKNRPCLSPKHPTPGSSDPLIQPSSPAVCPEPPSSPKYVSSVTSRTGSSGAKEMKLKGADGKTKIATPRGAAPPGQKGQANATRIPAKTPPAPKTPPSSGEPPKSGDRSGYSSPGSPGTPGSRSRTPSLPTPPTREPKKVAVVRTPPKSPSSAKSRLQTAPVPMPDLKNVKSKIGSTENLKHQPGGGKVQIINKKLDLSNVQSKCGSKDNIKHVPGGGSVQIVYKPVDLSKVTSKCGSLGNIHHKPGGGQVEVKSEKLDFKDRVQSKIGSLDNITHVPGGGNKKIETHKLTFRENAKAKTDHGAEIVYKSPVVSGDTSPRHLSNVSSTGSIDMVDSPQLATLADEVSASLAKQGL
Summary of the method: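 FP of Alexa 594-tau after heparin (20 uM) induction. Substrate: human K18 P301L, 15 uM unlabeled, 0.24 uM labeled. Buffer 100 mM sodium acetate pH 7. 6 hr, 37 C.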
% is scaled to controls: 0 for no effect and ±100 for the full control effect; potency is read from the fitted curve at half-maximal effect; tags tell the direction and shape of the fitted curve.
Also: nearly all actives have a fitted effect of over 55% in size.

Row | SMILES | activity, negative = inhibition | Potency
1 | Cc1ccc2c(c1)NC(=O)CC(c1ccccc1)=N2 | inactive: 3.13% | –
2 | O=C(CCC1N=C2c3ccccc3N=C(SCc3ccc(F)cc3)N2C1=O)NCc1ccco1 (stereo not given) | – | inconclusive: 25.1 µM [inhibitor, single point]
3 | Cc1ccc(SCC(=O)Nc2cccc(-c3nnc(-c4ccco4)o3)c2)cc1 | – | inconclusive: 12.6 µM [inhibitor, partial curve]
4 | Cc1ccccc1NC(=S)N(Cc1ccccn1)Cc1ccccc1Cl | inactive: -11.3% | –
5 | COc1ccc(OCCCn2c(=O)oc3ccccc32)cc1 | – | inconclusive: 44.7 µM [inhibitor, single point]
6 | CC(=O)C1=C(O)C(=O)OC1c1ccc(Cl)cc1 (stereo not given) | inactive: 3.98% | –
7 | CC(C)(C)OC(=O)N[C@@H](Cc1ccccc1)c1nnc(S(=O)(=O)Cc2cccc(F)c2)o1 | inactive: -1.84% | –
8 | Cc1nc2cc(-c3ccccc3)nn2c(C)c1CCC(=O)NCc1cccc(Cl)c1 | inactive: -5.69% | –
9 | O=C(COc1ccc(Cl)cc1Br)NNC(=O)C(=O)N1CCCCC1 | – | inconclusive: 20 µM [inhibitor, single point]
10 | O=C(CSc1cn(CC(=O)N2CCCC2)c2ccccc12)Nc1ccccc1C(F)(F)F | inactive: -6.06% | –
11 | CCCCN(C(=O)c1ccc(Cl)c(S(=O)(=O)N2CCOCC2)c1)c1c(N)n(CCC)c(=O)[nH]c1=O | inactive: 8.6% | –
12 | Oc1ccc(Br)cc1-c1cc(-c2ccccc2Cl)[nH]n1 | – | inconclusive: 6.31 µM [inhibitor, partial curve]
13 | C/C(CC(=O)NC1CCCC1)=N\NC(=O)Cc1cccs1 | inactive: 1.73% | –
14 | COc1ccc2c(c1)cc1c(=O)n(CC(=O)NCCc3ccccc3)nc(C)n12 | inactive: -2.81% | –
15 | O=C(Nc1cccc(Br)c1)c1cc(-c2ccc3c(c2)OCCO3)on1 | – | inconclusive: 28.2 µM [inhibitor, single point]
16 | OC[C@@H]1[C@@H](c2ccccc2)C(c2ccc(F)cc2)=NN1c1ccccc1 | – | inconclusive: 3.16 µM [activator, full curve, poor fit]
17 | CCOC(=O)c1cc(NC(=O)Nc2ccc(Br)cc2)c(C)nc1C | – | active: 17.8 µM
18 | O=C(c1ccco1)n1nc(-c2ccc(Cl)cc2)nc1NCc1ccc(F)cc1 | inactive: -9.88% | –
19 | O=C(Nc1ccc(N2CCOCC2)c(Cl)c1)c1cccnc1Cl | inactive: 5.29% | –
20 | O=C(O)C1SCCN1S(=O)(=O)c1ccc2ccccc2c1 (stereo not given) | – | inconclusive: 11.2 µM [inhibitor, partial curve, poor fit]
21 | O=C(Nc1ccc2nc(SCCOc3ccccc3)sc2c1)c1ccc2c(c1)OCO2 | – | inconclusive: 11.2 µM [inhibitor, partial curve]
22 | CC1CCCC(C)N1/N=C/c1ccc(N(C)C)cc1 (stereo not given) | inactive: -0.46% | –
23 | Cc1ccc(NC(=O)Cn2c(=O)n(CCC(=O)NCc3ccccc3Cl)c(=O)c3ccccc32)c(C)c1 | – | inconclusive: 0.178 µM [inhibitor, full curve, poor fit]

Row | SMILES | activity, negative = inhibition | Potency
24 | Cc1cccc(NS(=O)(=O)c2ccc3nc(-c4ccccc4)[nH]c3c2)c1C | – | inconclusive: 20 µM [inhibitor, partial curve] and inconclusive: 28.2 µM [inhibitor, partial curve]
25 | C=CCN1CCc2cc(O)c(O)cc2C(c2ccccc2)C1 (stereo not given) | inactive: -4.91% | –
26 | CCOC(=O)c1c(C)[nH]c(C)c1S(=O)(=O)N1CCC(C(=O)Nc2ccc(C)c(Cl)c2)CC1 | – | inconclusive: 31.6 µM [inhibitor, partial curve]
27 | CC(=O)Nc1ccc(Nc2ncnc3c2c(-c2ccccc2)cn3-c2ccc(C)c(Cl)c2)cc1 | – | inconclusive: 2.51 µM [activator, full curve]
28 | CC1CCN(C(=O)/C(=C\c2cccs2)NC(=O)c2ccccc2)CC1 | inactive: -7.18% [at 2.34 µM] | –
29 | COc1ccc(CC(=O)NNC(=O)c2cnccn2)cc1 | inactive: -9.23% | –
30 | O=C(/C=C/c1ccco1)NCC1CCCO1 (stereo not given) | – | inconclusive: 28.2 µM [inhibitor, single point]
31 | N#Cc1c(SCC(=O)Nc2ccccc2)nsc1SCC(=O)Nc1ccccc1 | – | inconclusive: 4.47 µM [inhibitor, partial curve, poor fit]
32 | COC(=O)N1CC=CC1(C)C(=O)O (stereo not given) | inactive: -8.89% | –
33 | CCOC(=O)c1cc(C)n(CCc2ccccc2)c1C | inactive: 4.64% | –
34 | CCc1ccccc1NC(=O)c1cc2c(Cl)nc3ccccc3c2s1 | inactive: -12.7% | –
35 | COC(=O)/C=C1\SC(N2CCOCC2)=C(c2ccc(OC)cc2)C1=O | – | inconclusive: 31.6 µM [inhibitor, single point]
36 | Cc1cc(C)c2nc(NC(=O)c3ccc(S(=O)(=O)N4CCC(C)CC4)cc3)sc2c1 | – | inconclusive: 28.2 µM [inhibitor, single point]
37 | C=CCNC(=O)c1cc2c(=O)n3cc(C)ccc3nc2nc1NCC1CCCO1 (stereo not given) | – | inconclusive: 44.7 µM [inhibitor, single point]
38 | C[C@@H](C(=O)Nc1ccc2ccccc2c1)[C@@H]1C[C@@]1(C)[C@@H](NC(=O)c1cccnc1)c1ccccc1 | – | inconclusive: 0.562 µM [inhibitor, single point]
39 | CCOC(=O)c1cnc2ccc(Cl)cc2c1Nc1ccc(OCC)cc1 | – | inconclusive: 17.8 µM [inhibitor, partial curve, poor fit]
40 | COc1ccc(Nc2cc(C(=O)NCCCN(C)Cc3ccccc3)c3ccccc3n2)cc1 | – | inconclusive: 0.891 µM [activator, full curve, poor fit]
41 | CCOC(=O)c1ccc(NC(=O)CC2C(=O)N(c3ccc(F)cc3)C(=O)N2Cc2ccc(C)cc2)cc1 (stereo not given) | – | inconclusive: 28.2 µM [inhibitor, partial curve, poor fit]
42 | COc1ccc(C(=O)Nc2ccccc2-c2nc3ccccc3s2)c(OC)c1 | – | inconclusive: 20 µM [inhibitor, partial curve]
43 | CCn1c(=O)n(CC)c2cc(N)ccc21 | – | inconclusive: 3.16 µM [inhibitor, single point]
44 | CCOc1cc(C2Sc3ccccc3NC3=C2C(=O)c2ccccc23)ccc1O (stereo not given) | – | inconclusive: 39.8 µM [inhibitor, single point]
45 | COc1ccc2[nH]cc(CCNC(=O)C3CCCO3)c2c1 (stereo not given) | inactive: 7.38% | –

From PubChem BioAssay AID1468 (National Center for Advancing Translational Sciences (NCATS), 2008)
